Test results taken from PubChem BioAssay AID686978 (National Center for Advancing Translational Sciences (NCATS), 2013).
Where “and” joins values, the source holds several entries; their conditions need not be identical. Equal entries are not always repeated. In all, about 420,000 compounds went through this assay and about 64,000 (15%) were called active. The inconclusive results got no clear call from the source; some entries with a clear call stand among them for comparison. Calls follow the shape of the dose curve; as a rule, active = well fitted inhibition curve with a large enough effect; inconclusive = small, poorly fitted or top-dose-only effect; inactive = flat fitted curve, though single readings scatter. No potency is given beside an inconclusive call; the fits are too rough.

test: qHTS for Inhibitors of human tyrosyl-DNA phosphodiesterase 1 (TDP1): qHTS in cells in absence of CPT; details: DT40 Tdp1-/- hTDP1 cells, no CPT, ATP luminescence, 48 h; activity change, negative = growth inhibition: at 46.2 µM (top of the series) unless noted; also: nearly all actives have a fitted effect of over 55% in size
How it was run: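 Cells were dispensed at 400 per well, compounds added by pin tool, plates incubated ≥48 hr at 37 °C, then CellTiter-Glo added for 30 min at room temperature before luminescence reading. Line: DT40 Tdp1-/- complemented with hTDP1; camptothecin omitted.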
% is scaled to controls: 0 for no effect and ±100 for the full control effect; potency is read from the fitted curve at half-maximal effect; tags tell the direction and shape of the fitted curve.

| SMILES | Potency | activity change, negative = growth inhibition |
| --- | --- | --- |
| O=[N+]([O-])C1C(c2ccccc2)C12c1ccccc1-c1ccccc12 (stereo not given) | active: 1.03 µM |  |
| COc1ccc(C(=O)Nc2cccc3c2CCCC3)cc1 | active: 5.8 µM |  |
| CCOc1ccccc1NC(=O)CSc1cc(=O)n(CC)c2ccccc12 | inconclusive [inhibitor, single point] |  |
| S=C1NC2(CCCCC2)Nc2ccccc21 | inconclusive [inhibitor, partial curve, poor fit] |  |
| CCCCNC(=O)COC(=O)c1c2c(nc3ccccc13)/C(=C/c1cccs1)CC2 | inconclusive [inhibitor, single point] |  |
| O=C(CN(Cc1ccc2c(c1)OCO2)C(=O)CNC(=O)c1ccco1)NC1CCCCC1 |  | inactive: -0.378% |
| O=C(CCCCCN1C(=O)CCC1=O)Nc1ccc2c(c1)OCO2 |  | inactive: -22.7% |
| CC(C)CN1CC(Br)C(=O)NC1=O (stereo not given) | inconclusive [inhibitor, single point] |  |
| CC[C@@]1(C(=O)OC)N[C@H](CN(C)C(=O)Nc2ccc(OC)cc2)[C@@H]2C(=O)N(C)C(=O)[C@@H]21 |  | inactive: -5.41% |
| COc1cc(C2C3=C(CCCC3=O)OC3=C2C(=O)CCC3)ccc1OCC(=O)Nc1ccccc1 |  | inactive: -25.5% |
| CC(C)(C)NC(=O)C(=O)NNC(=O)c1ccco1 |  | inactive: -21.1% |
| COc1ccc(OCC(=O)Nc2ccc(N3CCN(Cc4ccccc4F)CC3)cc2)cc1 | inconclusive [inhibitor, single point] |  |
| CC(=O)c1cc(-c2ccccc2)n(CCC(=O)Nc2cc(C)cc(C)c2)c1C | inconclusive [inhibitor, single point] |  |
| Cc1ccsc1/C=N/NC(=O)c1ccc([N+](=O)[O-])cc1 |  | inconclusive: -31.6% [inhibitor] |
| CCOc1ccc(C(=O)N/N=C(/C)C2C(=O)c3ccccc3C2=O)cc1 | active: 0.651 µM |  |
| CCn1c(-c2cccnc2Cl)nc2cc(C)c(C)cc21 | inconclusive [inhibitor, single point] |  |
| CCOc1ccc(-c2cc(C(F)(F)F)c(C#N)c(SCC(=O)Nc3ccccc3)n2)cc1 | inconclusive [inhibitor, full curve] |  |
| CC(C)n1nnnc1SCC(=O)c1c(N)n(C2CC2)c(=O)[nH]c1=O |  | inactive: -14.2% |
| O=C(OC(c1ccc(NS(=O)(=O)c2ccccc2)cc1)(C(F)(F)F)C(F)(F)F)c1ccccc1 | inconclusive [inhibitor, single point] |  |
| CCOCCCNC(=O)c1ccc(C2SCC(=O)N2Cc2ccccc2)cc1 (stereo not given) | inconclusive [inhibitor, single point] |  |
| Cc1cc(C)c2oc(-c3ccc(Cl)c(NC(=O)c4ccc(C#N)cc4F)c3)nc2c1 | inconclusive [inhibitor, partial curve] |  |
| C[C@@H]1CN(c2c(F)c(N)c3c(=O)c(C(=O)O)cn(C4CC4)c3c2F)C[C@H](C)N1 | inconclusive [inhibitor, partial curve] |  |
| COCCNC(=O)/C(C#N)=C/c1c(N2CCN(c3ccccc3)CC2)nc2c(C)cccn2c1=O | inconclusive [inhibitor, single point] |  |
| Cc1cccc(NC(=O)CSc2nc(C)c(Cc3ccccc3)c(=O)[nH]2)c1 | inconclusive [inhibitor, single point] |  |

| SMILES | Potency | activity change, negative = growth inhibition |
| --- | --- | --- |
| Cc1ccc(C)c(S(=O)(=O)Nc2ccc3sc(C)nc3c2)c1 | inconclusive [inhibitor, partial curve] |  |
| O=C(NCc1ccccc1)C1C(c2ccc3c(c2)OCO3)=Nc2ccccc2N1C(=O)c1cccc(C(F)(F)F)c1 (stereo not given) | inconclusive [inhibitor, partial curve] |  |
| Cn1c(=O)n(C)c2cc(S(=O)(=O)N3CCCc4ccccc43)ccc21 | inconclusive [inhibitor, single point] |  |
| N#Cc1ccc(CSc2ccc(S(=O)(=O)N3CCCC3)cn2)cc1 | active: 25.9 µM |  |
| COc1cc(NS(=O)(=O)c2ccc3c(c2)C(C)(C)C(=O)N3C)cc(OC)c1 |  | inactive: -4.95% |
| Cc1ccc(C(=O)O)cc1NC(=O)CCc1ccccc1 | inconclusive [inhibitor, single point] |  |
| CCOC(=O)C1=C(COC(=O)CCc2ccc(CC)cc2)NC(=O)NC1C (stereo not given) |  | inactive: -6.91% |
| Cc1ccc(NC(=O)c2ccc3nc[nH]c3c2)nc1 | active: 18.4 µM |  |
| Cc1nc(SC2CC(=O)N(c3cc(Cl)cc(Cl)c3)C2=O)nc2c1CCCC2 (stereo not given) | inconclusive [inhibitor, single point] |  |
| COc1ccc(NC(=O)c2sccc2SCc2cccc(C(F)(F)F)c2)cc1 | inconclusive [inhibitor, single point] |  |
| CC(C)CC1NC(=O)c2cc3ccccc3cc2-n2c1nc1ccc(Cl)cc1c2=O (stereo not given) | inconclusive [inhibitor, single point] |  |
| Cc1ccc(C)c(N2CCN(C(=O)c3c4c(nc5ccccc35)C(=O)N(C3CCCCC3)C4)CC2)c1 | active: 18.4 µM |  |
| CCCCCCCc1nc2sc3c(c2c(=O)n1N)CC(C)(C)OC3 | inconclusive [inhibitor, partial curve] |  |
| CCCCn1c(N)c(N(CCC(C)C)C(=O)c2oc3ccc(OCC)cc3c2C)c(=O)[nH]c1=O | inconclusive [inhibitor, single point] |  |
| O=C(Nc1ccccc1N1CCN(c2ccccc2)CC1)C12CC3CC(CC(C3)C1)C2 | active: 20.6 µM |  |
| CCOC(=O)c1cc(NC(=O)C2C3CCC(O3)C2C(=O)O)cc(C(=O)OCC)c1 (stereo not given) |  | inactive: 3.92% |
| CCCOc1cccc(C(=O)Nc2ccc(-c3nc4ccccc4o3)cc2)c1 | active: 13 µM |  |
| C=C(C)c1cccc(C(C)(C)NC(=O)NCC2COCCO2)c1 (stereo not given) |  | inactive: 1.38% |
| CC(=O)Nc1cc(-c2ccc(N3CCN(C)CC3)cc2)cn2c(-c3ccccc3)cnc12 | active: 16.4 µM |  |
| O=c1nc2c(-c3cccc(Br)c3)n[nH]n2c2ccccc12 | inconclusive [inhibitor, full curve] |  |
| Cc1ccc(NC(=O)CSc2nnc(-c3ccc(S(=O)(=O)N4CCCC4)cc3)o2)cc1C |  | inactive: -8.06% |
| O=C(N/N=C/c1ccccc1O)c1ccncc1 | active: 3.76 µM and active: 3.66 µM |  |
| CC(=O)c1ccc(NC(=S)NCCc2ccc(S(N)(=O)=O)cc2)cc1 | inconclusive [inhibitor, partial curve, poor fit] |  |
| COc1ccc(C2CC(c3ccccc3)=NN2C(=O)CSc2ncn[nH]2)cc1 (stereo not given) |  | inactive: -15.3% |

| SMILES | Potency | activity change, negative = growth inhibition |
| --- | --- | --- |
| Cn1cccc1-c1cc(C(=O)N/N=C/c2cccc(O)c2)[nH]n1 | inconclusive [inhibitor, single point] |  |
| O=C(c1cc2c(=O)oc3ccccc3c2s1)N1CCOCC1 |  | inactive: -0.808% |
| COc1ccc(-n2nc(C(=O)N3CCN(Cc4ccc5c(c4)OCO5)CC3)c3ccccc3c2=O)cc1 | inconclusive [inhibitor, full curve] |  |
| CC(C)(C)N(NC(=O)Nc1ccc(Cl)c(Cl)c1)C(=O)c1ccccc1 | active: 18.4 µM |  |
| CCCc1ccc(C(=O)CN2C(=O)C(=O)N(C3CCCC3)C2=O)cc1 |  | inactive: 1.71% |
| COc1ccccc1/C=C1\Cc2ccccc2C1=O | inconclusive [inhibitor, single point] |  |
| CNS(=O)(=O)c1ccc(Oc2ccc(S(=O)(=O)NC)cc2)cc1 | inconclusive [inhibitor, partial curve, poor fit] |  |
| Cc1ccc(Cl)cc1NS(=O)(=O)c1ccccc1 | inconclusive [inhibitor, single point] |  |
| O=C(CSc1nnc(Cn2nnc(-c3ccccc3)n2)n1-c1ccccc1)Nc1ccccc1 | inconclusive [inhibitor, partial curve] |  |
| Cc1cc2c(cc1C)NC1=C(N2)OC(c2cccc(O)c2)C1=O (stereo not given) | inconclusive [inhibitor, single point] |  |
| O=C(NC1CCCCC1)C(c1ccccc1F)n1c(=O)c(-c2cc3ccccc3[nH]2)nc2ccccc21 (stereo not given) | active: 14.6 µM |  |
| Cc1c(Cl)cccc1NC(=O)CSC(N)=O | active: 16.4 µM |  |
| CCCCC#Cc1ccc(C(=O)NNC(=O)Nc2ccccc2)o1 |  | inactive: -2.83% |
| CCN(CC)S(=O)(=O)c1cccc(C(=O)NC(C(=O)NC2=NCCS2)C(C)C)c1 (stereo not given) | inconclusive [inhibitor, partial curve, poor fit] |  |
| Cc1ccc(Nc2c([N+](=O)[O-])c(=O)oc3ccccc23)cc1C | inconclusive [inhibitor, single point] |  |
| CC1CN(C(=O)CCNC(=O)c2ccccc2Cl)CC(C)O1 (stereo not given) |  | inactive: 14% |
| O=C(NCc1ccco1)c1ccc(NS(=O)(=O)c2cccc([N+](=O)[O-])c2)cc1 | inconclusive [inhibitor, partial curve, poor fit] |  |
| C=CCn1c(SCc2c(C)noc2C)nnc1C1COc2ccccc2O1 (stereo not given) | inconclusive [inhibitor, single point] |  |
| COc1cccc(C2C(C(=O)Nc3cccnc3)=C(C)Nc3nc(SCc4ccccc4)nn32)c1 (stereo not given) |  | inactive: -4.18% |
| C/C=C\C=C/C(=O)Nc1cccc(C2=NOC3(C2)C[C@@H](C(N)=O)N(C(=O)/C=C/CC)C3)c1 (stereo not given in full) |  | inactive: 21% |
| O=C(OCc1c(-c2ccccc2)ncc2ccccc12)N1CCOCC1 | inconclusive [inhibitor, single point] |  |
| O=C(COC(=O)/C=C/c1ccco1)Nc1ncc(C(F)(F)F)cc1Cl | inconclusive [inhibitor, single point] |  |
